Substrate: C=CC(=O)Nc1cc(Nc2nccc(-c3cn(C4CC4)c4ccccc34)n2)c(OC)cc1N(C)CCN(C)C
Assay: cells, lysate or membranes named
[1] = other: variant *10, substrate aumolertinib
[2] = other: variant *12, substrate aumolertinib
[3] = other: variant *13, substrate aumolertinib
[4] = other: variant *14, substrate aumolertinib
[5] = other: variant *15, substrate aumolertinib
[6] = other: variant *16, substrate aumolertinib
[7] = other: variant *17, substrate aumolertinib
[8] = other: variant *18, substrate aumolertinib
[9] = other: variant *19, substrate aumolertinib
[10] = other: variant *23, substrate aumolertinib

B1: CYP3A4.10 (Homo sapiens; D174H) (protein)
chain: MALIPDLAMETWLLLAVSLVLLYLYGTHSHGLFKKLGIPGPTPLPFLGNILSYHKGFCMFDMECHKKYGKVWGFYDGQQPVLAITDPDMIKTVLVKECYSVFTNRRPFGPVGFMKSAISIAEDEEWKRLRSLLSPTFTSGKLKEMVPIIAQYGDVLVRNLRREAETGKPVTLKHVFGAYSMDVITSTSFGVNIDSLNNPQDPFVENTKKLLRFDFLDPFFLSITVFPFLIPILEVLNICVFPREVTNFLRKSVKRMKESRLEDTQKHRVDFLQLMIDSQNSKETESHKALSDLELVAQSIIFIFAGYETTSSVLSFIMYELATHPDVQQKLQEEIDAVLPNKAPPTYDTVLQMEYLDMVVNETLRLFPIAMRLERVCKKDVEINGMFIPKGVVVMIPSYALHRDPKYWTEPEKFLPERFSKKNKDNIDPYIYTPFGSGPRNCIGMRFALMNMKLALIRVLQNFSFKPCKETQIPLKLSLGGLLQPEKPVVLKVESRDGTVSGA
Q: B1 was tested. Which Km [1] did it give?
A: Its Km is 2.314 ± 0.065 µM.

Q: What about the kcat [1] of the same protein?
A: The kcat was 0.0174 s⁻¹.

Q: And the kcat/Km [1]?
A: The kcat/Km was 7530 M⁻¹ s⁻¹.

B2: CYP3A4.12 (Homo sapiens; L373F) (protein)
chain: MALIPDLAMETWLLLAVSLVLLYLYGTHSHGLFKKLGIPGPTPLPFLGNILSYHKGFCMFDMECHKKYGKVWGFYDGQQPVLAITDPDMIKTVLVKECYSVFTNRRPFGPVGFMKSAISIAEDEEWKRLRSLLSPTFTSGKLKEMVPIIAQYGDVLVRNLRREAETGKPVTLKDVFGAYSMDVITSTSFGVNIDSLNNPQDPFVENTKKLLRFDFLDPFFLSITVFPFLIPILEVLNICVFPREVTNFLRKSVKRMKESRLEDTQKHRVDFLQLMIDSQNSKETESHKALSDLELVAQSIIFIFAGYETTSSVLSFIMYELATHPDVQQKLQEEIDAVLPNKAPPTYDTVLQMEYLDMVVNETLRLFPIAMRFERVCKKDVEINGMFIPKGVVVMIPSYALHRDPKYWTEPEKFLPERFSKKNKDNIDPYIYTPFGSGPRNCIGMRFALMNMKLALIRVLQNFSFKPCKETQIPLKLSLGGLLQPEKPVVLKVESRDGTVSGA
Q: With B2 as the protein, how does the Km [2] read?
A: The Km was 19.773 ± 4.091 µM.

Q: And the kcat [2]?
A: Its kcat is 0.0053 s⁻¹.

Q: And the kcat/Km [2]?
A: Its kcat/Km is 267 M⁻¹ s⁻¹.

B3: CYP3A4.13 (Homo sapiens; P416L) (protein)
chain: MALIPDLAMETWLLLAVSLVLLYLYGTHSHGLFKKLGIPGPTPLPFLGNILSYHKGFCMFDMECHKKYGKVWGFYDGQQPVLAITDPDMIKTVLVKECYSVFTNRRPFGPVGFMKSAISIAEDEEWKRLRSLLSPTFTSGKLKEMVPIIAQYGDVLVRNLRREAETGKPVTLKDVFGAYSMDVITSTSFGVNIDSLNNPQDPFVENTKKLLRFDFLDPFFLSITVFPFLIPILEVLNICVFPREVTNFLRKSVKRMKESRLEDTQKHRVDFLQLMIDSQNSKETESHKALSDLELVAQSIIFIFAGYETTSSVLSFIMYELATHPDVQQKLQEEIDAVLPNKAPPTYDTVLQMEYLDMVVNETLRLFPIAMRLERVCKKDVEINGMFIPKGVVVMIPSYALHRDPKYWTEPEKFLLERFSKKNKDNIDPYIYTPFGSGPRNCIGMRFALMNMKLALIRVLQNFSFKPCKETQIPLKLSLGGLLQPEKPVVLKVESRDGTVSGA
Q: Which Km [3] does the source give for B3 here?
A: The Km was 6.015 ± 0.384 µM.

Q: What about the kcat [3] of the same protein?
A: The kcat was 0.00675 s⁻¹.

Q: And the kcat/Km [3]?
A: Its kcat/Km is 1120 M⁻¹ s⁻¹.

B4: CYP3A4.14 (Homo sapiens; L15P) (protein)
chain: MALIPDLAMETWLLPAVSLVLLYLYGTHSHGLFKKLGIPGPTPLPFLGNILSYHKGFCMFDMECHKKYGKVWGFYDGQQPVLAITDPDMIKTVLVKECYSVFTNRRPFGPVGFMKSAISIAEDEEWKRLRSLLSPTFTSGKLKEMVPIIAQYGDVLVRNLRREAETGKPVTLKDVFGAYSMDVITSTSFGVNIDSLNNPQDPFVENTKKLLRFDFLDPFFLSITVFPFLIPILEVLNICVFPREVTNFLRKSVKRMKESRLEDTQKHRVDFLQLMIDSQNSKETESHKALSDLELVAQSIIFIFAGYETTSSVLSFIMYELATHPDVQQKLQEEIDAVLPNKAPPTYDTVLQMEYLDMVVNETLRLFPIAMRLERVCKKDVEINGMFIPKGVVVMIPSYALHRDPKYWTEPEKFLPERFSKKNKDNIDPYIYTPFGSGPRNCIGMRFALMNMKLALIRVLQNFSFKPCKETQIPLKLSLGGLLQPEKPVVLKVESRDGTVSGA
Q: How did the Km [4] turn out when B4 was run?
A: The Km was 3.445 ± 0.109 µM.

Q: And the kcat [4]?
A: The kcat was 0.0166 s⁻¹.

Q: What about the kcat/Km [4] of the same protein?
A: Its kcat/Km is 4820 M⁻¹ s⁻¹.

B5: CYP3A4.15 (Homo sapiens; R162Q) (protein)
chain: MALIPDLAMETWLLLAVSLVLLYLYGTHSHGLFKKLGIPGPTPLPFLGNILSYHKGFCMFDMECHKKYGKVWGFYDGQQPVLAITDPDMIKTVLVKECYSVFTNRRPFGPVGFMKSAISIAEDEEWKRLRSLLSPTFTSGKLKEMVPIIAQYGDVLVRNLRQEAETGKPVTLKDVFGAYSMDVITSTSFGVNIDSLNNPQDPFVENTKKLLRFDFLDPFFLSITVFPFLIPILEVLNICVFPREVTNFLRKSVKRMKESRLEDTQKHRVDFLQLMIDSQNSKETESHKALSDLELVAQSIIFIFAGYETTSSVLSFIMYELATHPDVQQKLQEEIDAVLPNKAPPTYDTVLQMEYLDMVVNETLRLFPIAMRLERVCKKDVEINGMFIPKGVVVMIPSYALHRDPKYWTEPEKFLPERFSKKNKDNIDPYIYTPFGSGPRNCIGMRFALMNMKLALIRVLQNFSFKPCKETQIPLKLSLGGLLQPEKPVVLKVESRDGTVSGA
Q: With B5 as the protein, how does the Km [5] read?
A: The Km was 3.540 ± 0.181 µM.

Q: What about the kcat [5] of the same protein?
A: Its kcat is 0.0377 s⁻¹.

Q: What about the kcat/Km [5] of the same protein?
A: The kcat/Km was 10700 M⁻¹ s⁻¹.

B6: CYP3A4.16 (Homo sapiens; T185S) (protein)
chain: MALIPDLAMETWLLLAVSLVLLYLYGTHSHGLFKKLGIPGPTPLPFLGNILSYHKGFCMFDMECHKKYGKVWGFYDGQQPVLAITDPDMIKTVLVKECYSVFTNRRPFGPVGFMKSAISIAEDEEWKRLRSLLSPTFTSGKLKEMVPIIAQYGDVLVRNLRREAETGKPVTLKDVFGAYSMDVISSTSFGVNIDSLNNPQDPFVENTKKLLRFDFLDPFFLSITVFPFLIPILEVLNICVFPREVTNFLRKSVKRMKESRLEDTQKHRVDFLQLMIDSQNSKETESHKALSDLELVAQSIIFIFAGYETTSSVLSFIMYELATHPDVQQKLQEEIDAVLPNKAPPTYDTVLQMEYLDMVVNETLRLFPIAMRLERVCKKDVEINGMFIPKGVVVMIPSYALHRDPKYWTEPEKFLPERFSKKNKDNIDPYIYTPFGSGPRNCIGMRFALMNMKLALIRVLQNFSFKPCKETQIPLKLSLGGLLQPEKPVVLKVESRDGTVSGA
Q: B6 was tested. Which Km [6] did it give?
A: The Km was 3.013 ± 0.205 µM.

Q: And the kcat [6]?
A: Its kcat is 0.023 s⁻¹.

Q: And the kcat/Km [6]?
A: Its kcat/Km is 7670 M⁻¹ s⁻¹.

B7: CYP3A4.17 (Homo sapiens; F189S) (protein)
chain: MALIPDLAMETWLLLAVSLVLLYLYGTHSHGLFKKLGIPGPTPLPFLGNILSYHKGFCMFDMECHKKYGKVWGFYDGQQPVLAITDPDMIKTVLVKECYSVFTNRRPFGPVGFMKSAISIAEDEEWKRLRSLLSPTFTSGKLKEMVPIIAQYGDVLVRNLRREAETGKPVTLKDVFGAYSMDVITSTSSGVNIDSLNNPQDPFVENTKKLLRFDFLDPFFLSITVFPFLIPILEVLNICVFPREVTNFLRKSVKRMKESRLEDTQKHRVDFLQLMIDSQNSKETESHKALSDLELVAQSIIFIFAGYETTSSVLSFIMYELATHPDVQQKLQEEIDAVLPNKAPPTYDTVLQMEYLDMVVNETLRLFPIAMRLERVCKKDVEINGMFIPKGVVVMIPSYALHRDPKYWTEPEKFLPERFSKKNKDNIDPYIYTPFGSGPRNCIGMRFALMNMKLALIRVLQNFSFKPCKETQIPLKLSLGGLLQPEKPVVLKVESRDGTVSGA
Q: How did the Km [7] turn out when B7 was run?
A: Its Km is 58.283 ± 13.120 µM.

Q: What about the kcat [7] of the same protein?
A: The kcat was 0.00535 s⁻¹.

Q: What about the kcat/Km [7] of the same protein?
A: Its kcat/Km is 100 M⁻¹ s⁻¹.

B8: CYP3A4.18 (Homo sapiens; L293P) (protein)
chain: MALIPDLAMETWLLLAVSLVLLYLYGTHSHGLFKKLGIPGPTPLPFLGNILSYHKGFCMFDMECHKKYGKVWGFYDGQQPVLAITDPDMIKTVLVKECYSVFTNRRPFGPVGFMKSAISIAEDEEWKRLRSLLSPTFTSGKLKEMVPIIAQYGDVLVRNLRREAETGKPVTLKDVFGAYSMDVITSTSFGVNIDSLNNPQDPFVENTKKLLRFDFLDPFFLSITVFPFLIPILEVLNICVFPREVTNFLRKSVKRMKESRLEDTQKHRVDFLQLMIDSQNSKETESHKALSDPELVAQSIIFIFAGYETTSSVLSFIMYELATHPDVQQKLQEEIDAVLPNKAPPTYDTVLQMEYLDMVVNETLRLFPIAMRLERVCKKDVEINGMFIPKGVVVMIPSYALHRDPKYWTEPEKFLPERFSKKNKDNIDPYIYTPFGSGPRNCIGMRFALMNMKLALIRVLQNFSFKPCKETQIPLKLSLGGLLQPEKPVVLKVESRDGTVSGA
Q: With B8 as the protein, how does the Km [8] read?
A: Its Km is 5.859 ± 0.286 µM.

Q: And the kcat [8]?
A: Its kcat is 0.0126 s⁻¹.

Q: What about the kcat/Km [8] of the same protein?
A: Its kcat/Km is 2170 M⁻¹ s⁻¹.

B9: CYP3A4.19 (Homo sapiens; P467S) (protein)
chain: MALIPDLAMETWLLLAVSLVLLYLYGTHSHGLFKKLGIPGPTPLPFLGNILSYHKGFCMFDMECHKKYGKVWGFYDGQQPVLAITDPDMIKTVLVKECYSVFTNRRPFGPVGFMKSAISIAEDEEWKRLRSLLSPTFTSGKLKEMVPIIAQYGDVLVRNLRREAETGKPVTLKDVFGAYSMDVITSTSFGVNIDSLNNPQDPFVENTKKLLRFDFLDPFFLSITVFPFLIPILEVLNICVFPREVTNFLRKSVKRMKESRLEDTQKHRVDFLQLMIDSQNSKETESHKALSDLELVAQSIIFIFAGYETTSSVLSFIMYELATHPDVQQKLQEEIDAVLPNKAPPTYDTVLQMEYLDMVVNETLRLFPIAMRLERVCKKDVEINGMFIPKGVVVMIPSYALHRDPKYWTEPEKFLPERFSKKNKDNIDPYIYTPFGSGPRNCIGMRFALMNMKLALIRVLQNFSFKSCKETQIPLKLSLGGLLQPEKPVVLKVESRDGTVSGA
Q: Which results are given for B9?
A: Km [9]: 3.625 ± 0.237 µM; kcat [9]: 0.0193 s⁻¹; kcat/Km [9]: 5350 M⁻¹ s⁻¹

B10: CYP3A4.23 (Homo sapiens; R162W) (protein)
chain: MALIPDLAMETWLLLAVSLVLLYLYGTHSHGLFKKLGIPGPTPLPFLGNILSYHKGFCMFDMECHKKYGKVWGFYDGQQPVLAITDPDMIKTVLVKECYSVFTNRRPFGPVGFMKSAISIAEDEEWKRLRSLLSPTFTSGKLKEMVPIIAQYGDVLVRNLRWEAETGKPVTLKDVFGAYSMDVITSTSFGVNIDSLNNPQDPFVENTKKLLRFDFLDPFFLSITVFPFLIPILEVLNICVFPREVTNFLRKSVKRMKESRLEDTQKHRVDFLQLMIDSQNSKETESHKALSDLELVAQSIIFIFAGYETTSSVLSFIMYELATHPDVQQKLQEEIDAVLPNKAPPTYDTVLQMEYLDMVVNETLRLFPIAMRLERVCKKDVEINGMFIPKGVVVMIPSYALHRDPKYWTEPEKFLPERFSKKNKDNIDPYIYTPFGSGPRNCIGMRFALMNMKLALIRVLQNFSFKPCKETQIPLKLSLGGLLQPEKPVVLKVESRDGTVSGA
Q: B10 was tested. Which Km [10] did it give?
A: The Km was 4.085 ± 0.391 µM.

Q: What about the kcat [10] of the same protein?
A: The kcat was 0.0194 s⁻¹.

Q: What about the kcat/Km [10] of the same protein?
A: The kcat/Km was 4770 M⁻¹ s⁻¹.

— publication PMC11157048, “The influence of drug-induced metabolic enzyme activity inhibition and CYP3A4 gene polymorphism on aumolertinib metabolism” (Frontiers in Pharmacology, 2024)
